Reference: PubChem BioAssay AID2546 (National Center for Advancing Translational Sciences (NCATS), 2010)
In all, about 310,000 compounds went through this assay and about 11,000 (3.5%) were called active. This list was built around the results that the source calls inconclusive (neither active nor inactive); the mix of calls is not that of the screen. Calls come from the whole dose curve; as a rule, active = well fitted inhibition curve with a large enough effect; inconclusive = small, poorly fitted or top-dose-only effect, or effect the other way; inactive = flat fitted curve, though single readings scatter. No potency is given beside an inconclusive call; the fits are too rough.

Assay: VP16 counterscreen qHTS for inhibitors of ROR gamma transcriptional activity;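 note: Gal4-VP16 expression switched on by copper sulfate through the metallothionein promoter; nearly all actives have a fitted effect of over 50% in size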
Conditions: Drosophila S2 Gal4-VP16 UAS-luciferase, luminescence, 20 h; activity, negative = inhibition: at 53.6 µM (top of the series)
% is set by controls: 0 for no effect and ±100 for the full control effect; potency is the fitted concentration of half-maximal effect; tags give direction and shape of the fitted curve.

Compound	Potency	activity, negative = inhibition
O=C(CSc1nc2ccccc2c(=O)[nH]1)N1CCN(c2ccccc2F)CC1	inactive	
COC(=O)c1ccccc1-c1ccc(/C=N/NC(=O)c2cc3ccccc3o2)o1	inconclusive [inhibitor, single point]	
CCCCCCN1N=C(C)C(C(=O)c2ccc(Cl)cc2)C1=O (centres undefined)	inconclusive [inhibitor, single point]	
Cc1cc(C)c2cc3c(N)c(C(=O)N4CCOCC4)sc3nc2c1	inconclusive [activator, single point]	
COc1cc(SC#N)ccc1N=Cc1c(C)[nH]n(-c2ccc(Cl)cc2)c1=O	active: 5.62 µM	
Cc1ncoc1C(=O)Nc1ncc([N+](=O)[O-])s1	inconclusive [activator, single point]	
CC(C)C[C@H](NC(=O)c1[nH]cnc1C(=O)N[C@@H](C)c1ccccc1)C(=O)OC(C)(C)C	active: 0.631 µM	
Cc1cccc(C(=O)Nc2ccc(N3CCN(c4ccc(C(F)(F)F)cn4)CC3)nc2)c1	inactive	
O=C(Nc1nccs1)c1cc(-c2ccccc2)nc2ccccc12	inconclusive [inhibitor, single point]	
O=C(Nc1ccc(Cl)cc1)N(C1=NCCC1)c1ccc(OC(F)F)cc1	inconclusive [inhibitor, single point]	
Cc1ccc(NNC(=S)Nc2ccc(C(C)C)cc2)c(C)c1	inconclusive [inhibitor, single point]	
O=C(N=C1SC2CS(=O)(=O)CC2N1c1cccc(Cl)c1Cl)C1CC1 (centres undefined)	inactive	
COC(=O)C(CCSC)NC(=O)c1cc2c(n(-c3ccccc3)c1=O)CCCC2=O (centres undefined)	inconclusive [inhibitor, single point]	
S=c1[nH]ncn2c1cc1oc3ccccc3c12	inactive	
C/C(=N/NC(=O)CSCc1ccc(Cl)cc1)c1cccc(NC(=O)c2ccccc2)c1	inconclusive [inhibitor, partial curve, poor fit]	
Cc1nonc1NC(=O)c1ccccc1Br	inactive	
O=C(COc1ccccc1)Nc1sc2c(c1C(=O)NCc1cccnc1)CCCC2	inconclusive [inhibitor, single point]	
CCCn1c(N)c(C(=O)CSc2nnc(Cc3ccccc3)o2)c(=O)n(C)c1=O	inconclusive [inhibitor, single point]	
Cc1cc(-n2nc3ccccc3n2)c(O)c([N+](=O)[O-])c1	inconclusive [inhibitor, single point]	
COCCN(Cc1cc2cc3c(cc2nc1Cl)OCO3)C(=O)c1ccc(C)cc1	inconclusive [inhibitor, single point]	
CCCCc1ncc(CN2CCC(CC3CCCCO3)(C(=O)OCC)CC2)[nH]1 (centres undefined)	inactive	
CCN(CC)c1ccc(NC(=O)c2cccc(OC)c2)c(C)c1	inactive	
Cc1cc(C)c2c(=O)n(CC(=O)NC3CCCC3)sc2n1	inconclusive [inhibitor, single point]	
COc1cc(OC)c2c(-c3ccccc3)cc(=O)oc2c1C(CCN1CCCC(C)C1)c1ccc(N(C)C)cc1 (centres undefined)	inactive	
COc1cc(OC)cc(C(=O)NC(=S)Nc2cc3oc4ccccc4c3cc2OC)c1	inconclusive [activator, single point]	

Compound	Potency	activity, negative = inhibition
CCc1ccc(NC(=O)Nc2cc(C(=O)NCC3CCCO3)ccc2N2CC3CC(C2)c2cccc(=O)n2C3)cc1 (centres undefined)	inactive	
CN1CCN(c2ccc(NC(=O)c3ccccc3)cc2)CC1	inconclusive [inhibitor, single point]	
COc1ccc(C)cc1NC(=O)NC1CCCc2ccccc21 (centres undefined)	inactive	
CCN1C/C(=C/c2ccc(N3CCOCC3)cc2)C(=O)/C(=C/c2ccc(N3CCOCC3)cc2)C1	inconclusive [inhibitor, single point]	
C=CCNC(=S)NNc1nc2c(c(=O)[nH]1)C1(CCCCC1)Cc1ccccc1-2	active: 1.78 µM	
COc1ccc(CNCC(O)(c2ccccc2)c2ccc(Cl)cc2)cc1 (centres undefined)	inconclusive [inhibitor, single point]	
COc1ccc(NC(=O)c2cc(SC)ccc2Cl)cc1	inconclusive [activator, single point]	
COC(=O)c1sccc1NC(=O)Nc1ccc(OC)cc1	inconclusive [activator, full curve, poor fit]	
Cc1ccccc1CN1CCN(C2CCC2)CC1CCO (centres undefined)	inactive	
CCCc1nnc(NC(=O)c2nc(S(=O)(=O)Cc3ccc(C)cc3)ncc2Cl)s1	inconclusive [inhibitor, partial curve, poor fit]	
O=C(CSc1ccccc1)NCc1ccco1	inactive	
CCOC(=O)c1sc(=NC(=O)/C=C/c2cccs2)n(C)c1C	inconclusive [activator, full curve]	
O=C(O)c1ccc2[nH]c3c(c2c1)CSCC3	inactive	
Cc1ccc(C#CC[N+]2(CC#Cc3ccc(C)cc3)CCCCC2)cc1	active: 7.08 µM	
COc1cc2c(cc1OC)C(c1ccccc1)N(C(=O)CCl)CC2 (centres undefined)	inconclusive [inhibitor, single point]	
OC(CNCc1ccc(Cl)cc1)(c1ccccc1)c1ccc(F)cc1 (centres undefined)	active: 11.2 µM	
COCC(=O)N/N=C\c1ccccc1OC/C=C/c1ccccc1	inactive	
Cc1nc(N)sc1-c1csc(Nc2ccc(Cl)cn2)n1	inconclusive [inhibitor, single point]	
Cc1cccc(NS(=O)(=O)c2ccc(C(=O)N3CCN(c4ccccc4O)CC3)cc2)c1C	inconclusive [inhibitor, partial curve]	
CCOc1ccc(-c2ccc(SCC(=O)N3CCOCC3)nn2)cc1	inconclusive [inhibitor, single point]	
Clc1ccc2nc(-c3ccccn3)c(Nc3ccc4c(c3)OCO4)n2c1	inconclusive [inhibitor, single point]	
O=C(CCCN1C(=O)c2ccccc2C1=O)Nc1ccc(S(=O)(=O)N2CCCCC2)cc1	inconclusive [inhibitor, single point]	
CCOc1c(Cl)cc(/C=N/O)cc1OC	inactive	
Cc1cc(C)c(C#N)c(Nc2cccc(C)c2C)n1	inactive	
Cc1ccc(-n2nnnc2Sc2ccc(S(=O)(=O)NCCN(C)C)cc2[N+](=O)[O-])cc1	inconclusive [inhibitor, single point]	

Compound	Potency	activity, negative = inhibition
COc1cc(/C=N/NC(=O)C2COc3ccccc3O2)cc(OC)c1OC (centres undefined)	inactive	
CCN(CC)C(=O)C1CCCN(c2ccc([N+](=O)[O-])cc2[N+](=O)[O-])C1 (centres undefined)	inconclusive [inhibitor, single point]	
COc1ccc(Cn2c(C3CC3)nc3ccc(NC(=O)C4CC4)cc3c2=O)cc1	inactive	
CCOC(=O)c1cnc2ccc(F)cc2c1Nc1ccc2c(c1)OCCO2	inconclusive [inhibitor, single point]	
CN(C)C(=O)c1ccc(-c2ccc3ncnc(N(C)Cc4ccco4)c3c2)cc1	inconclusive [activator, single point]	
COCCOC(=O)c1c(NC(=O)CN2CCCc3ccccc32)sc(C(N)=O)c1C	inactive	
C=CCSc1nnc(NC(=O)CSc2nc3ccccc3o2)s1	inconclusive [inhibitor, single point]	
CC1(C)CC(=O)C2=C(C1)N=C1c3ccccc3C(=O)C1C2c1ccc(Cl)cc1 (centres undefined)		inactive: 14.8% [at 0.365 µM]
CCCNc1nc2c(c(=O)n(C)c(=O)n2C)n1Cc1cccc(C)c1	active: 5.01 µM	
O=C1/C(=C/Nc2cccc([N+](=O)[O-])c2)CCc2ccccc21	inconclusive [activator, single point]	
O=C(CCl)N1CCN(S(=O)(=O)c2ccc3ccccc3c2)CC1	inconclusive [inhibitor, single point]	
COc1cc(C(=O)NC(=S)Nc2nccs2)cc(OC)c1OC	inconclusive [inhibitor, single point]	
CNC(=S)N1CCC(n2cnc3ccccc32)CC1	inactive	
C=CCn1c(-c2cc(OC)c(OC)c(OC)c2)n[nH]c1=S	inconclusive [inhibitor, single point]	
CCOC(=O)c1ccc(NC(=O)CN2C(=O)NC3(CCCCCC3)C2=O)cc1	inactive	
CN(C)S(=O)(=O)c1cc(NC(=O)c2cc(=O)c3ccccc3o2)ccc1Cl	inactive	
CC1CCCN(c2c3c(nc4ccccc24)CCCC3)C1 (centres undefined)	inactive	
O=C(CCc1ccccc1)Nc1nnc(-c2cccs2)o1	active: 10 µM	
COc1ccc(N2C(=O)CC(N3CCN(S(=O)(=O)c4ccc(Cl)cc4)CC3)C2=O)cc1 (centres undefined)	inactive	
CCOC(=O)c1sc(NC(=O)CCN2CCN(CC)CC2)c(C(=O)OCC)c1C	inconclusive [inhibitor, single point]	
COc1cccc(OCc2cc(C(=O)N3CCC(c4ccncc4)CC3)no2)c1	inconclusive [inhibitor, single point]	
Clc1cccc(/C=N/Nc2nnc(Cl)c3ccccc23)c1	inconclusive [inhibitor, partial curve, poor fit]	
N#Cc1cc(Oc2cccc3cccnc23)c(-n2nnc3ccccc32)cc1C#N	active: 6.31 µM	
COC(=O)c1cc(OC)c(OC)cc1NC(=O)CSc1ccccc1	inconclusive [inhibitor, single point]	
